# Source: patent US11866509B2, “Humanized antibodies against CEACAM1” (Famewave Ltd., priority 2014, dated 2024)
# Legend:
# Format in all cases: cell-based
# [1] = test system: Human melanoma cells (SKMEL28); test: Cytotoxicity of human LAK cells against melanoma cells, antibody combination, LDH release; conditions: CM-24 with mAb to human PD-1 (clone E12.2H7), 0.1-0.8 μg/ml each; anti-PD-1 added first
# Description: FIG. 6. Synergistic effects of anti-CEACAM1 and anti-PD-1 antibodies on the cytotoxicity of human LAK cells against human melanoma cells when anti-PD-1 antibodies are added prior to the addition of anti-CEACAM1 antibodies. Human melanoma cells were grown in the presence of IFN-ã to induce PD-L1 expression. Human LAK cells generated by activation of PBMCs from a healthy human donor with IL-2 were incubated with medium only (white), non-specific IgG antibody (black), various concentrations of a monoclonal antibody to human CEACAM1 (vertical lines), a monoclonal antibody to human PD-L1 (horizontal lines) or a combination of both antibodies (dots). Results represent an average of % cytotoxicity ±SE as determined by classical LDH release assay from triplicate wells per treatment. * P≤0.05 paired T-test compared to a-PD-L1 only. Combination index was calculated as described above.
# Human melanoma cancer cells (MALME 3M) were grown in the presence of IFN-ã to induce PD-L1 expression. […] The combination index (CI) was calculated to be 0.15. In the same assay, the level of the cytotoxic protein granzyme B that is secreted upon cytotoxic cell activation was evaluated by commercial granzyme B ELISA Kit. […] The combination index (CI) was calculated to be 0.67. […]
# [2] = test system: CEACAM1-positive primary cells (lymphocytes, epithelial and endothelial cells); test: Proliferation rate or viability of primary cells
# Description: CM-24 enhances the cytotoxic activity of effector cells in the presence of CEACAM1 positive tumor cells and in the context of a specific human leukocyte antigen (HLA)-restricted T cell reaction.
# [3] = test system: human pancreatic cancer cells T3M4; test: Cytotoxicity of human LAK cells against pancreatic cancer cells, LDH release; conditions: 0.1 μg/ml to 10 μg/ml CM-24, 24 hours
# Description: FIG. 10. Anti-CEACAM1 antibodies increase the cytotoxicity of human LAK cells against a human pancreatic cancer cells T3M4. Human LAK cells were incubated with CM-24 in different concentrations for 30 minutes at 37° C. Human pancreatic cancer cells T3M4 were added for an incubation of 24 hours. Results represent an average of % cytotoxicity ±SE as determined by classical LDH release assay from triplicate wells per treatment. * P≤0.05 paired T-test compared to effectors+target cells with medium only.
# • A. Anti-CEACAM1 antibodies increase the cytotoxicity of human LAK cells against human melanoma cells: PBMC cells were isolated from a healthy donor followed by activation with IL-2 (500 or 1000 units/ml) for 3 days to generate a population of human LAK cells. Then, the human LAK cells were incubated with 0.1 μg/ml, 0.5 μg/ml, 2.5 μg/ml, 5 μg/ml or 10 μg/ml of an anti-CEACAM1 antibody (CM-24) for 30 minutes at 37° C. Human melanoma cells (SKMEL28) were added for an incubation of 24 hours, after which cytotoxicity was determined. […] PBMC cells were isolated from a healthy donor followed by activation with IL-2 (500 units/ml) for 7 days to generate a population of human LAK cells. […] Granzyme B secretion was measured by ELISA. […] IFN-γ secretion was measured by ELISA.
molecule,measurement,setting,value
"CM-24: back-mutated humanized IgG4 anti human CEACAM1 monoclonal antibody; light chain SEQ ID NO: 52, heavy chain SEQ ID NO: 53 (antibody) heavy: QVQLVQSGAEVKKPGASVKVSCKASGYAFTNNLIEWVRQAPGQGLEWIGVINPGSGDTNYNEKFKGRVTMTADKSISTAYMELSRLRSDDTAVYYCARGDYYGGFAVDYWGQGTTVTVSSASTKGPSVFPLAPCSRSTSESTAALGCLVKDYFPEPVTVSWNSGALTSGVHTFPAVLQSSGLYSLSSVVTVPSSSLGTKTYTCNVDHKPSNTKVDKRV[letters of human IgG4 Fc with S228P (EU numbers) left out] light: DIQMTQSPSSLSASVGDRVTITCRTSQDIGNYLNWYQQKPGKAVKLLIYYTSRLHSGVPSRFSGSGSGTDYTLTISSLQPEDIATYFCQQGKSLPRTFGGGTKVEIKRTVAAPSVFIFPPSDEQLKSGTASVVCLLNNFYPREAKVQWKVDNALQSGNSQESVTEQDSKDSTYSLSSTLTLSKADYEKHKVYACEVTHQGLSSPVTKSFNRGEC",combination index (CI),[1],< 0.8
same,direct effect on proliferation rate or viability,[2],no direct effect
same,cytotoxicity of human LAK cells,[3],significantly increases cytotoxicity
